Variants at the background level are over-represented here.
B1: glmS ribozyme (parent)
chain: AUAAAAGCGCCAGAACUACAGAAAUGUAGUUGACGAGGAGGAGGUUUAUCGAAUUUUCGGCGGAUGCCUCCAAA

Key:
Settings in all cases: with glucosamine-6-phosphate
glucosamine-6-phosphate [1] = variants of: B1; assay: kcat; higher = faster cleavage; RNA array
Procedure, shortened: (§1)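 kcat and KM were obtained from weighted Michaelis–Menten fits across concentrations of kobs values. Those came from one- or two-exponential decay fits to per-tile medians normalised to baseline and to non-cleaving reference variants. The variants were barcoded ribozymes transcribed in situ by E. coli RNA polymerase on sequenced MiSeq chips and tracked through a hybridised Cy3 probe at 37 °C, with 40 μM to 10 mM glucosamine-6-phosphate in HEPES/KCl/Mg(OAc)2 buffer flowed in.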

glucosamine-6-phosphate [2] = variants of: B1; assay: self-cleavage kobs at 10000 uM GlcN6P; higher = faster cleavage; RNA array
Procedure, shortened: as §1

glucosamine-6-phosphate [3] = variants of: B1; assay: self-cleavage kobs at 640 uM GlcN6P; higher = faster cleavage; RNA array
Procedure, shortened: as §1

glucosamine-6-phosphate [4] = variants of: B1; assay: self-cleavage kobs at 40 uM GlcN6P; higher = faster cleavage; RNA array
Procedure, shortened: as §1

glucosamine-6-phosphate [5] = variants of: B1; assay: self-cleavage kobs at 160 uM GlcN6P; higher = faster cleavage; RNA array
Procedure, shortened: as §1

glucosamine-6-phosphate [6] = variants of: B1; assay: self-cleavage kobs at 2500 uM GlcN6P; higher = faster cleavage; RNA array
Procedure, shortened: as §1

Variant	kcat (glucosamine-6-phosphate [1])	self-cleavage kobs at 10000 uM GlcN6P (glucosamine-6-phosphate [2])	self-cleavage kobs at 640 uM GlcN6P (glucosamine-6-phosphate [3])	self-cleavage kobs at 40 uM GlcN6P (glucosamine-6-phosphate [4])	self-cleavage kobs at 160 uM GlcN6P (glucosamine-6-phosphate [5])	self-cleavage kobs at 2500 uM GlcN6P (glucosamine-6-phosphate [6])
ACAAAAGCGCCAGAACUACAGAAAUGUAGUUGAGGAGUAGGAGGUUUAUCGAAUUUUCGGAGGAUGCCUCCAAA [U2C C34G G38U C61A]	< 1e-05 s⁻¹					
AUAAAAACGCCAGAACUACAGAAAUGUAGUUGACGAGGAGGAGGUUUAUCGAAUUUUCGGUGGAUGCCUCCAAA [G7A C61U]	< 1e-05 s⁻¹	< 1e-05 s⁻¹				
AUAAAAGCGACAUAACUACAGAAAUGUAGUUGACGAGGAGGAGGUUUAUCGAAUUUUCGGCGGAUGCCUCCAAA [C10A G13U]	< 1e-05 s⁻¹		< 1e-05 s⁻¹			
AUAAAAGCGACAGAACUACAGAAAUGUAGUUGACGAUGAGGAGGUUUAUCGAAUUUUCGGCGGAUGCCUCCAAA [C10A G37U]	< 1e-05 s⁻¹			< 1e-05 s⁻¹		
AUAAAAGCGCGAGAACUACAGAAAUGUAGUUGACGAGGAGGAGGUUUAUCGAAUAUUCGGCGGAUGCCUCCAAA [C11G U55A]	< 1e-05 s⁻¹			< 1e-05 s⁻¹	< 1e-05 s⁻¹	
AUAAAAGCGCAAGAACUACAGAAAUGUAGGUGACGAGGAGGAGGUUUAUCGAAUUUUCGACGGAUGCCUCCAAA [C11A U30G G60A]	< 1e-05 s⁻¹				< 1e-05 s⁻¹	
AUAAAACCGCCAGAACUACAGAAAUGUAGUUGACGAGGAGGAGGUUUAUCGGAUUUUCGGCGGAUGCCUCCAAA [G7C A52G]	< 1e-05 s⁻¹		< 1e-05 s⁻¹		< 1e-05 s⁻¹	< 1e-05 s⁻¹
AUAAAAGCGCCACAACUACAGAAAUGUAGUUGACGAGGAGGAGGUUUAUCGAAUUUUCGGCGGAUGCGUCCAAA [G13C C68G]	< 1e-05 s⁻¹					
AUAAAAGCGCCAUAACUACAGAAAUGUAGUUGACGCGGAGGAGGUUUAUCGAAUUUUCGGCGGAUGCCUUCAAA [G13U A36C C70U]	< 1e-05 s⁻¹	< 1e-05 s⁻¹				
AUAAAAGCGCCCGAACUACAGAAAUGUAGUUGACGAGGAGGAGGUUUAUCAAAUUUUCGGCGGAUGCCUCCAAA [A12C G51A]	< 1e-05 s⁻¹			< 1e-05 s⁻¹	< 1e-05 s⁻¹	< 1e-05 s⁻¹
AUAAAAUCGCCAGAACUACAGAAAUGUAGUUGACGAGUAGGAGGUUUAUCGAAUUUUCGGCGGAUGCCUCCAAA [G7U G38U]	< 1e-05 s⁻¹	< 1e-05 s⁻¹		< 1e-05 s⁻¹	< 1e-05 s⁻¹	< 1e-05 s⁻¹
AUAAAAGCGGCAGAACUACAGAAAUGUAGUUGACGAGGAGGAGGCUUAUCGAAUUUUCGGCGGAUGCCCCCAAA [C10G U45C U69C]	< 1e-05 s⁻¹		< 1e-05 s⁻¹			
AUAAAUGCGCCGGAACUACAGAAAUGUAGUUGACGAGGAGGAGGUUUAUCGAAUUUUCGGCGGAUGCCUCCAAA [A6U A12G]	< 1e-05 s⁻¹					
AUAAAAGCGCUAGAACUACAGAAAUGUAGUUGUCGAGUAGGAGGUUUAUCGAAUUUUCGGCGGAUGCCUCCAAA [C11U A33U G38U]	< 1e-05 s⁻¹				< 1e-05 s⁻¹	
AUAAAAGCGCCCGAACUACAGAAAUGUAGUUGACGCGGAGGAGGUUUAUCGAAUUUUCGGCGGAUGCCUCCAAA [A12C A36C]	< 1e-05 s⁻¹				< 1e-05 s⁻¹	
AUAAAAGCGCCAAAACUACAGAAAUGUAGUUGUCGAGGAGGAGGUUUAUCGAAUUUUCGGCGGAUGCCUCCAAA [G13A A33U]	< 1e-05 s⁻¹			< 1e-05 s⁻¹		
AUAAAAGCGCCUGAACUACAGAAAUGUAGUUGACGAGGAGGAGGUUUAUCGAAUUUUCGCCGGAUGCCUCCAAA [A12U G60C]	< 1e-05 s⁻¹				< 1e-05 s⁻¹	
AUAAAAGCGCUAGAACUACAGAAAUGUAGUUGACGAUGAGGAGGUUUAUCGAAUUUUCGGCGGAUGCCUCCAAA [C11U G37U]	< 1e-05 s⁻¹					
AUAAAAGCGCGAGAACUACAGAAAUGUAGUUGACGCUGAGGAGGUUUAUCGUAUUUUCGUCGGAUAACUCCAAA [C11G A36C G37U A52U G60U G66A C67A]	< 1e-05 s⁻¹					< 1e-05 s⁻¹
AUAAAAGCGCCGGAACUACAGAAAUGUAGUUGACUAGGAGUAGGUUUAUCAAAUCUUCGGCGGAUGCCUCCAAA [A12G G35U G41U G51A U55C]	< 1e-05 s⁻¹			< 1e-05 s⁻¹	< 1e-05 s⁻¹	
AUAAAAUCGCCAGAACUACAGAAAUGUAGUUGACGAGGAGGAGGUUUAUCGAAUUGUCGGCGGAUGCCUCCAAA [G7U U56G]	< 1e-05 s⁻¹	< 1e-05 s⁻¹		< 1e-05 s⁻¹		
AUAAAAGCGCCAUAACUACAGAAAUGUAGUUGACGAGGAGGAGGUUUCUCGAAUUUUCGGCGGAUGCCUCCAAA [G13U A48C]	< 1e-05 s⁻¹		< 1e-05 s⁻¹	< 1e-05 s⁻¹	< 1e-05 s⁻¹	
AUAAAACCGCCAUAACUACAGAAAUGUAGUUGACGAGGAGGAGGUUUAUCGAAUUUUCGGCGGAUGCCUCCAAA [G7C G13U]	< 1e-05 s⁻¹	< 1e-05 s⁻¹	< 1e-05 s⁻¹	< 1e-05 s⁻¹	< 1e-05 s⁻¹	
AUAAAAGCGUCAGAUCUACAGAAAUGUAGUUGACGAGGAGGAGGUUUAUCGCAUUUUCGGCGGAUGCCUCCAAA [C10U A15U A52C]	< 1e-05 s⁻¹		< 1e-05 s⁻¹			
AUAAAAGCGGCAGAACUACAGAAAUGUAGUUGACGAGGAGGAGGUUUAUCGAAUUUUCGGCGGAUGCCUGCAAA [C10G C70G]	< 1e-05 s⁻¹			< 1e-05 s⁻¹		
AUAAAAGGGCCAGCACUACAGAAAUGUAGUUGACGACGAGGAGGUUUAUCGAAUUUUCGGCGGAUGGCUCCAAA [C8G A14C G37C C67G]	< 1e-05 s⁻¹		< 1e-05 s⁻¹	< 1e-05 s⁻¹		
AUAAAGGCGCCAGAACUACAGAAAUGUAGUUGCCGAGGCGGAGGUUUAUCGAAUUUUCGGCGGAUGCCUCCAAA [A6G A33C A39C]	< 1e-05 s⁻¹		< 1e-05 s⁻¹			
AUAAAAGCGUCAGAACUACAGAAAUGUAGUUCACGAGGAGGAGGUUUAUCGAAUUUUCGGCGGAUGCCUCCAAA [C10U G32C]	< 1e-05 s⁻¹		< 1e-05 s⁻¹	< 1e-05 s⁻¹	< 1e-05 s⁻¹	
AUAAAAGCGACAGAACUACAGAAAUGUAGUUGACGAGGAGGAGGUUUAUCGAAUUUUCGGCGGCUGCCUCCAAA [C10A A64C]	< 1e-05 s⁻¹	< 1e-05 s⁻¹	< 1e-05 s⁻¹			< 1e-05 s⁻¹

— the supplement of paper PMC7125110
